Experimental data reported in PubChem BioAssay AID1963576 (National Center for Advancing Translational Sciences (NCATS), 2024).
Screen size: about 46,000 compounds; about 60 (0.1%) were called active. Not shown: some 3% with an inconclusive outcome. The call rests on the fitted dose curve; in most records, active means well fitted inhibition curve with a large enough effect; inconclusive means small, poorly fitted or top-dose-only effect; inactive means no such curve, though single readings can be large or run the other way. This is one part of the list.

assay: Primary qHTS assay for Inhibitors of ovarian cancer metastasis using an organotypic tumor microenvironment (TME) model.; further: nearly all actives have a fitted effect of over 65% in size;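 on activity change, negative = inhibition: plate controls were DMSO wells for no effect and tomatine positive control wells for full effect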; details: SKOV3ip1-GFP adhesion/invasion on 3D omental model, fluorescence; series mostly up to 45.8 µM; activity change, negative = inhibition: at the top concentration
Outline: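 A 3D layer of primary human omental fibroblasts, mesothelial cells, fibronectin and collagen I, grown 48 hr, received SKOV3ip1-GFP cells in serum-free medium plus compounds at 0.36-46 umol/L. After 2 hr RT and 16 hr 37 C, fixed adherent GFP cells were counted; normalized to DMSO and tomatine.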

Activity change, negative = inhibition, inactive:
CCOc1ccc(CNC(=O)CCCc2cn(C)c3ccccc23)cc1OC 17%
COC(=O)c1cc2sc(Cl)cc2n1Cc1cc(C)ccc1C 1.63%
Cc1cc(=O)c2cc(C(=O)Nc3ccccc3C)ccc2[nH]1 15.9%
CCOc1cc2sc(N3CCC(C(=O)Nc4cc(C)cc(C)c4)CC3)nc2cc1Br -9.25%
COc1ccccc1Cn1cc(C(=O)c2ccc(C)cc2)c(=O)c2cc3c(cc21)OCCO3 -14.2%
CCn1cc2c(n1)-c1c(oc(C(=O)Nc3cccc(C(F)(F)F)c3)c1C)CC2 -4.53%
COc1cc(F)c(S(=O)(=O)Nc2c(C)n(C)n(-c3ccccc3)c2=O)cc1OC -3.11%
COC(=O)c1ccc(CSc2nnc3ccc4ccccc4n23)cc1 14.7%
COc1ccc(C(=O)Nc2ccc(C(=O)OCc3cc(=O)n4nc(C5CC5)sc4n3)cc2)cc1 3.8%
COc1ccccc1-c1noc(CCCC(=O)Nc2cc(C)ccc2C)n1 49.3%
CCCN(Cc1cccs1)C(=O)Nc1cc(OC)ccc1OC 2.99%
Cc1ccc(N(C)C(=O)c2cc(S(=O)(=O)N3CCOCC3)cn2C)cc1 13.9%
O=C(CN1CCSc2ccccc21)N1CCN(c2ccc(F)cc2)CC1 -7.13%
CCN(CC)C(=O)Nc1ccc2c(c1)N(Cc1ccccc1)C(=O)c1ccccc1S2 17.5%
CCOC(=O)c1c(C)[nH]c(C)c1S(=O)(=O)NCC(=O)N1CCN(c2ccccc2OC)CC1 15.6%
COc1ccc(OC)c(S(=O)(=O)NCCc2csc(-c3cccc(F)c3)n2)c1 -2%
CC(=O)c1ccc(NC(=O)CCOc2ccccc2)cc1 -8.93%
CCOc1ccccc1NC(=O)C(CC)n1c(C(=O)OC)cc2occc21 (configuration not stated) -3.5%
CCc1cccc(C)c1NC(=O)CN1CCCN(Cc2ccccc2Cl)S1(=O)=O 3.11%
Cc1c(C(=O)N2CCCCCC2)c(S(=O)(=O)N(Cc2ccccc2)C(C)(C)C)c(C)n1C 13%
CCCn1c(=NC(=O)c2cc3ccccc3o2)c(C(=O)OCC)cc2c(=O)n3ccccc3nc21 4.7%
COc1ccc(Nc2oc(/C=C/c3cccc(OC)c3)nc2C#N)cc1 48.4%
COc1ccc(N(C(=O)/C=C\C(=O)Nc2ccc(C)cc2)C(C(=O)NCc2ccco2)c2ccc(C)cc2)cc1 (configuration not stated) -5.35%
CCCc1nn2c(=O)cc(COc3ccc(/C=C(\C#N)C(=O)Nc4ccccc4)cc3)nc2s1 2.77%
COc1ccc(C(CC(=O)NCc2ccccc2Cl)N2Cc3ccccc3C2=O)cc1OC (configuration not stated) -2.27%
Cc1ccc(NC(=O)Cn2c(=O)n(CCCCC(=O)NCc3ccccc3Cl)c(=O)c3ccccc32)cc1 -2.77%
Cc1ccc(C)c(CN2C(=O)c3ccccc3S(=O)c3ccc(C(=O)N4CCN(c5cccc(Cl)c5)CC4)cc32)c1 (configuration not stated) 12%
COc1ccccc1OCC(=O)NCC(c1ccc(Cl)cc1)N1CCOCC1 (configuration not stated) 2.41%
Cc1ccc(NC(=O)CN(C)S(=O)(=O)c2cnc[nH]2)cc1 1.6%
Cc1ccc(NC(=O)C(=O)NCc2ccco2)cc1 -2.43%
Cc1ccc(Cl)cc1NC(=O)c1oc2ccc(S(=O)(=O)N3CCCCC3)cc2c1C 9.43%
Cc1ccc(NC(=O)C2CCCN(S(=O)(=O)c3cccc4cccnc34)C2)cc1 (configuration not stated) -27%
CC(=O)CSc1nnc2cc(C)c3cc(C)cc(C)c3n12 -20.7%
Cc1ccc(S(=O)(=O)c2cn(Cc3cccc(C)c3)c3cc4c(cc3c2=O)OCO4)cc1 -10.2%
Cc1ccc(Cl)cc1NC(=O)c1oc2ccc(S(=O)(=O)N(C)C3CCCCC3)cc2c1C 0.835%
CCOC(=O)c1ccc(NC(=O)CSc2cc(=O)n(CC)c3ccccc23)cc1 -12.7%
O=C(NCCc1ccc(Cl)cc1)C(=O)NCC(c1ccco1)S(=O)(=O)c1ccc(Cl)cc1 (configuration not stated) -6.96%
CCOc1ccc(CN2C(=O)c3ccccc3Sc3ccc(C(=O)O)cc32)cc1 -7.89%
CCC(CC)C(=O)Nc1nnc(SCc2cc(=O)n3cccc(C)c3n2)s1 3.17%
Cc1ccc2c(c1)c(=O)c(C(=O)c1ccc3c(c1)OCO3)cn2Cc1ccc(Cl)cc1 -6.83%
CN(C(=O)CSc1nnc(-c2ccccc2F)o1)C1CCCCC1 1.97%
c1coc(-c2nc3n(n2)C2(CCCCC2)[C@@H]2CCCC[C@@H]2N3)c1 -1.59%
Cc1oc2ncnc(N3CCCCC3)c2c1C(=O)N1CCN(c2cccc(Cl)c2)CC1 13.4%
CN(C)c1ccc(CNC(=O)CCn2cccn2)cc1 4.79%
CCc1ccc(CN2CCc3nc(N4CCN(CC)CC4)ncc3C2)cc1 0.243%
CC(C)c1cnc2c(c1SCC(=O)Nc1cccc(F)c1)c(=O)n(C)c(=O)n2C -7.59%
Cc1ccc(Cl)cc1Nc1nn2c(=O)c3ccc(C(=O)N4CCCC(C)C4)cc3nc2s1 (configuration not stated) -5.81%
CCn1cc2nc(SCc3cccc(Cl)c3)n(Cc3ccc(C)cc3)c(=O)c2n1 101%
O=C(Nc1cccc(F)c1)C1CCN(S(=O)(=O)c2cccc3nsnc23)CC1 1.03%

outcome, inactive:
COc1ccc(CCNC(=O)CCCCn2c(=O)c3ccccc3n(Cc3ccccc3Cl)c2=O)cc1OC
O=S(=O)(c1ccc(-n2cnnn2)cc1)N1CCN(c2cccc(Cl)c2)CC1
CCCCN(CC)CCNC(=O)C1CCCN(S(=O)(=O)c2cccc3nsnc23)C1 (configuration not stated)
O=C(Cn1ncc2ccsc2c1=O)N1CCN(c2ccccc2F)CC1
O=c1cc(-c2ccccc2)n2c(SCc3c(F)cccc3Cl)nnc2[nH]1
Cc1ccc(-n2c(=O)c3cccnc3n2CC(=O)Nc2cc(Cl)ccc2C)cc1
CC(C)CC(=O)NC1(C(F)(F)F)C(=O)Nc2c1c(=O)[nH]c(=O)n2-c1ccccc1 (configuration not stated)
CCc1ccc(-n2c(=O)c3c4c(sc3n(CC(=O)N3CCC(C)CC3)c2=O)CCC4)cc1
CCc1nonc1NC(=O)c1oc2ccc(Br)cc2c1C
Cc1nn(C(C)C(=O)N2CCN(c3ccc(Cl)cc3)CC2)c(=O)c2cc3occc3n12 (configuration not stated)
COc1cc(NC(=O)CCc2c(C)nc3cc(-c4ccccc4)nn3c2C)cc(OC)c1OC
CCOc1ccc(CN(C(=O)c2cc(=O)c3cc(C)cc(C)c3o2)C2CCS(=O)(=O)C2)cc1 (configuration not stated)
CCCN1C(=O)C2(c3ccccc31)c1c(oc3ccc(F)cc3c1=O)C(=O)N2CCCOC(C)C (configuration not stated)
